Some of the results follow.
Test system: T1, C. trachomatis L2/434/Bu expressing GFP (CTL2-GFP)
T1 construct: L2/434/Bu GFP intracellular growth in HeLa cells
Design: species or system HeLa; C. trachomatis total inclusion area by high-content imaging, normalised to DMSO
Details: total inclusion area; 28.5 h, 10 µM; inhibitor
Outline: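 Post-fluorescence-read fixation, DNA staining with Hoechst and high-content imaging; GFP inclusion area and number per well, and nuclei counts, used as proxies for bacterial growth and host viability.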

Row | Structure (SMILES) | % of control remaining
1 | CCCNC(=O)c1sc(Nc2ccc(Cl)cn2)nc1C [CBK287850] | 80.4482
2 | COc1ccc(-c2cn3cccnc3n2)cc1NC(=O)c1ccccc1 [CBK287296] | 108.709
3 | Cc1cc(F)ccc1NC(=O)c1n[nH]cc1Cl [CBK288020] | 64.8058
4 | Cc1cccc(Nc2ncnc3ccccc23)c1 [CBK072827] | 103.045
5 | Cn1c(=S)[nH]c2c(-c3ccccc3)c[nH]c2c1=O [CBK288488] | 60.0129
6 | Cc1cc(C)n(CC(=O)NCC2CCCO2)c(=O)c1C#N (centres unmarked) [CBK269926] | 87.4455
7 | COc1ncccc1C(=O)N1CCc2ccccc2C1 [CBK200336] | 91.85
8 | Nc1cccc(-c2cc(Nc3ccc(CCO)cc3)ncn2)c1 [CBK090766] | 100.216
9 | O=C(NCCN1CCCCC1)C1CC(=O)N(Cc2ccccc2)C1 (centres unmarked) [CBK305150] | 44.5346
10 | Cc1cc(C[C@@H]2COC[C@H]2NCc2ccc(C(C)C)cc2)on1 [CBK284884] | 114.649
11 | Cc1nn(C)c(Cl)c1S(=O)(=O)Nc1ccc2cc(Br)cnc2n1 [CBK073892] | 99.5361
12 | O=C(CSc1nccc2ccccc12)NC1CCCOC1 (centres unmarked) [CBK282677] | 118.947
13 | CC1CCc2c(sc3ncnc(NCCc4nc5ccccc5[nH]4)c23)C1 (centres unmarked) [CBK268809] | 95.4512
14 | S=C(NCCC(c1ccccc1)c1ccccc1)NC1CCCCC1 [CBK264007] | 71.3991
15 | CC(C)C(=O)NC(c1ccco1)c1ccc2cccnc2c1O (centres unmarked) [CBK263277] | 96.3186
16 | CCOc1ccccc1OCc1nn2c(-c3ccncc3)nnc2s1 [CBK268535] | 103.772
17 | C=C(C)Cn1c(SC(C)C)nnc1-c1cccnc1 [CBK200073] | 84.4281
18 | CCC1CCc2c(sc(NC(=O)c3cc(-c4ccc(Cl)s4)nc4ccccc34)c2C(N)=O)C1 (centres unmarked) [CBK262646] | 82.6484
19 | COc1ccc(C(NC(=O)C2CCN(C(=O)C(C)(C)C)CC2)c2cnccn2)cc1 (centres unmarked) [CBK059791] | 67.555
20 | CS(=O)(=O)c1ccc2nc(Nc3nc4c(F)cccc4s3)sc2c1 [CBK287478] | 89.1099
21 | O=C(Cc1ccccc1)NC(Cc1ccc(Cl)cc1)C(=O)O (centres unmarked) [CBK286976] | 32.9437
22 | Cc1ccc2c(c1)C(=O)CC1(CC3CCC1N3C(=O)C(C)C)O2 (centres unmarked) [CBK284468] | 114.195
23 | CC(C)C(=O)N1CCC2(C/C=C/C[C@H]3COCC[C@H]3NC(=O)CNC2=O)CC1 [CBK292157] | 95.8296
24 | CCN(CC)S(=O)(=O)c1cc(C(=O)Nc2ccccc2C(=O)O)c(Cl)cc1Cl [CBK265731] | 102.996
25 | CSCCC(=O)NC1CCCc2nc(N3CCC(CO)CC3)ncc21 (centres unmarked) [CBK306782] | 38.7578
26 | CCOC(=O)c1cnn(C2CCCN(Cc3ccsc3)C2)c1 (centres unmarked) [CBK305112] | 121.917
27 | COc1ccc(C(=O)NNC(=O)c2cc(OC)cc(OC)c2)cc1 [CBK262616] | 106.746

Row | Structure (SMILES) | % of control remaining
28 | COc1ccc(CNC(=O)c2cn[nH]c2-c2ccccc2)c(OC)c1 [CBK288057] | 81.3232
29 | COc1ccc(-c2csc(Nc3ccc(N)cc3)n2)cc1OC [CBK074456] | 77.9906
30 | CNC(=O)NC(=O)CN1CCC(CNc2ncccc2C#N)C1 (centres unmarked) [CBK306126] | 36.2534
31 | CC(C)NC(=O)c1ccccc1Br [CBK026505] | 83.7934
32 | CCCC(=O)NCc1ccc(-c2cc(CN(C)C)n(C)n2)cc1 [CBK282007] | 75.7189
33 | O=C(CC1S/C(=N/N=C/c2ccc(-c3cc([N+](=O)[O-])ccc3Cl)o2)NC1=O)Nc1ccccc1 (centres unmarked) [CBK264592] | 108.662
34 | COc1ccc(CCCC(=O)NC2CCCCC2C)cc1 (centres unmarked) [CBK026124] | 112.271
35 | Cn1nccc1CCNC(=O)c1cccc(S(=O)(=O)N2CCCCC2)c1 [CBK304363] | 120.976
36 | O=C(O)C1C2C=CC3(CN(C/C=C/c4ccccc4)C(=O)C13)O2 (centres unmarked) [CBK286946] | 98.5479
37 | CCC(C)c1ccccc1NC(=O)c1cc(=O)[nH]c2ccccc12 (centres unmarked) [CBK297516] | 83.2217
38 | CC(C)CC(=O)Nc1nc(OCC(F)(F)F)cnc1-c1ccc(Cl)cc1Cl [CBK145356] | 119.719
39 | COc1cc(C(c2c[nH]c3ccccc23)c2c[nH]c3ccccc23)ccc1OCC(=O)O [CBK265717] | 107.843
40 | CC(=O)Nc1ccc([C@@H](O)[C@H]2COCC(=O)N2Cc2ccc(C(F)(F)F)cc2)cc1 [CBK289678] | 110.86
41 | Cc1cccc(C)c1NC(=O)Cn1nnc(-c2ccc(CN3CCC(C)CC3)cc2)n1 [CBK121194] | 94.0353
42 | O=C1c2ccccc2NC(C(=O)O)(c2ccccc2)N1c1ccccc1Cl (centres unmarked) [CBK287169] | 103.207
43 | Cc1nn(CC(=O)NC2CCC2)c(=O)c2cc3ccsc3n12 [CBK284103] | 93.7824
44 | CC1=C/C(=C(\C#N)C(N)=O)NC(c2ccccc2O)=N1 [CBK019764] | 104.117
45 | O=S(=O)(Nc1nnn[nH]1)c1ccc(-c2cc(C(F)(F)F)on2)s1 [CBK062393] | 89.3849
46 | CC[C@H](Cn1ncc2ccccc2c1=O)NC(=O)c1ccc2c(c1)Sc1ccccc1O2 [CBK286173] | 110.7
47 | Cc1ccc2nc(-c3ccccc3)cc(C(=O)NCCCn3ccnc3)c2c1 [CBK268526] | 119.833
48 | FC(F)(F)c1ccnc(OCc2cccnc2)n1 [CBK115902] | 104.27
49 | Cc1nc(NC(=O)CN2CCN(c3cccc(Cl)c3)CC2)sc1C [CBK305902] | 11.0568
50 | O=C(Cn1c([C@@H]2CCCO2)cc2cccnc21)N1CCCCC1 [CBK282286] | 65.8172
51 | CC(C)OC(=O)N1CCN(C(=O)c2cn(Cc3cccc(S(C)(=O)=O)c3)nn2)CC1 [CBK160994T] | 100.236
52 | CCOC(=O)CCNC(=O)c1cncc(-c2ccc(C(=O)N3CCOCC3)cc2)c1 [CBK158645] | 102.782
53 | CN(C)c1ccc(Nc2ncnc3c2cnn3CCC#N)cn1 [CBK306231] | 16.2849
54 | CC(C)C(=O)N1CC2(CCN(CCc3cccc4ccccc34)CC2)c2ccccc21 [CBK136978] | 52.9462

Row | Structure (SMILES) | % of control remaining
55 | Cc1cc(C)n(CC(=O)NC(Cc2cccs2)c2nccs2)n1 (centres unmarked) [CBK284686] | 97.9963
56 | COc1ccc(F)c(CN2CC3CCCN3C[C@@H]2C)c1 (some centres unmarked) [CBK284549] | 103.315
57 | Cc1nc2c(C)cccc2cc1C(=O)NCCCc1ccccn1 [CBK282148] | 88.6972
58 | O=C(COc1ccccc1)N/N=C/c1ccc[nH]1 [CBK261281] | 111.723
59 | CS(=O)(=O)N1CCC(c2nc(-c3ccc(C(F)(F)F)cc3)c3ccccn23)CC1 [CBK036006] | 104.693
60 | O=C(N/N=C/c1c(Cl)cccc1Cl)c1cc(Br)ccc1O [CBK262022] | 104.018
61 | Cc1csc(NC(=O)C2CC(=O)N(C3CCCC3)C2)n1 (centres unmarked) [CBK175501] | 93.2468
62 | OC1CCN(Cc2ccc(-c3ccc(F)cc3F)o2)CC1 [CBK283200] | 68.2321
63 | Cc1nc(C(=O)N2CCn3nc(C(O)Cc4ccccc4)cc3C2)cs1 (centres unmarked) [CBK307214] | 77.2178
64 | CC(=O)C1=C(O)C(=O)N(CCN2CCOCC2)C1c1cccc([N+](=O)[O-])c1 (centres unmarked) [CBK264568] | 112.837
65 | COc1ccc(-c2nccnc2N[C@@H](CO)C(C)C)cc1 [CBK089040] | 69.1784
66 | CC1CCN(CC(=O)NC2CCN(C(C)c3ccccc3)CC2)CC1 (centres unmarked) [CBK284017] | 94.0078
67 | CS(=O)(=O)N1CC2(CCN(C(=O)[C@@H]3CNC[C@H]3c3ccccc3)CC2)c2ccccc21 [CBK022572] | 68.1187
68 | Cc1nc2cccnc2n1CCNC(=O)Cc1cccs1 [CBK283592] | 101.344
69 | Cc1ccc(N(CC(=O)N/N=C/c2ccc(Cl)cc2)S(=O)(=O)c2ccccc2)cc1 [CBK262182] | 87.7629
70 | CSc1nnc(CC2CCN(C(=O)c3cc(C)c(C)cc3C)CC2)n1C [CBK307467] | 56.3464
71 | Cc1ncccc1COC(=O)N1Cc2ccccc2C1 [CBK200138] | 91.1685
72 | Cc1ccc2cc(C)c3nn(CC(=O)NC4CC4)c(=O)n3c2c1C [CBK283822] | 80.4632
73 | O=C1CC(c2ccc(F)cc2)Cc2[nH]c(=O)c(C(=O)O)cc21 (centres unmarked) [CBK287200] | 116.315
74 | Cc1ccccc1N1C(=O)c2ccc(C(=O)OCC(=O)c3ccc(Cl)c([N+](=O)[O-])c3)cc2C1=O [CBK264108] | 117.447
75 | COc1ccc(CCN(Cc2ccc(Cl)c(Cl)c2)C(=O)NCc2ccc(C#N)cc2)cc1OC [CBK158771] | 105.179
76 | CC(C)c1nc(C(=O)NCC2CCCN(c3ncccn3)C2)cs1 (centres unmarked) [CBK304351] | 77.2563
77 | CC(C)Cn1ncc2cc(C(=O)Nc3ccnn3C(C)C)cnc21 [CBK304938] | 35.3005
78 | Cc1ccc(NC(=S)N2CCN(C/C=C/c3ccccc3)CC2)cc1 [CBK264574] | 104.358
79 | CCN1CCN(c2nc(N)c3ccccc3n2)CC1 [CBK268561C] | 86.62
80 | COc1cc(NC(=O)CN2C(=O)c3ccc([N+](=O)[O-])cc3C2=O)c(C(=O)O)cc1OC [CBK265109] | 88.0054
